# Experimental data reported in the supplement of paper PMC11417369.
# This is one part of the list.
# Tested on: PfAP2-HC AP2 domain (GST-tagged)
# Assay: gcPBM binding intensity (ln(normalized median fluorescence intensity)); higher = stronger DNA binding
# In short: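 GST-tagged P. falciparum DNA-binding domains, expressed in E. coli (about 25 μg on average), were applied for 1 h to an Agilent 4 × 180k array of primer-extended double-stranded 36-bp intergenic genomic probes plus negative controls. The binding buffer was 1× PBS with 1% milk, 0.2 mg/ml BSA, 0.5% salmon testes DNA and 0.03% Triton X-100. Bound protein was detected with Alexa488 anti-GST antibody and scanned at 488 nm. Binding intensity is the highest Masliner-normalised natural-log median intensity across replicate spots of either probe orientation.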
row,Sequence,gcPBM binding intensity (ln)
1,TGATATTATTATAAGGTGCTTAAAAATAAAGATAAT [GTGCAC_site9539],9.58
2,AAAAAAAAAGATCACACACACATAAATATAAACAAA [CACACA_site5285],10.9
3,AAAAAAAAAAAAAAAAAAAAAAAAAAAAGTTAAAAA [TGCATGCA_negctrl_site74],9.09
4,AAAATTAAAATAGTAATACACACTTCATAGGAAATG [CACACA_site1762],9.73
5,AACAAGAAATAATCACGTACACATTATAATAACTAA [XGTACX_site8184],9.76
6,ATATAAAATAATAAGGGTACAGGTCTCTGCGATGTT [XGTACX_site786],9.77
7,TAAAATATTGTTATTACATGCAACCTTATGAAAAAT [TGCATGCA_site706],9.53
8,AGAATTTTAGATTTAGCACACATTTTTTTTTTTTTT [CACACA_site4081],9.62
9,ACTCGCATATTTAAATGTACTTAATTAGAAGAAAAA [XGTACX_site3304],9.44
10,ACTTTAATAATTCACTTATTTTCTTATTATATTATT [CACACA_negctrl_site556],9.89
11,GGATTTATTTTATATACACACATACCTATATTTATA [CACACA_site7084],9.9
12,TTTTTAACTAACATATCAATTCCATACGTCGTCAAA [CACACA_negctrl_site560],9.51
13,AACTTGTGTGGATATTGTACTAACAATATGTATGAT [XGTACX_site6302],9.94
14,AATAGTGTATAAATTTGTACATATAATTAAAAGGAA [XGTACX_site1143],9.82
15,AATAACTTTTTGAGATGTACATTTTTAATTCGTAGA [XGTACX_site8455],9.43
16,ATTCATAAAAAGAGGTGTACATTAATATAATATATA [XGTACX_site8283],9.68
17,TTATTCGAACAAAGGAAAAAATATATTCAAAGGAAA [TGCATGCA_negctrl_site215],9.48
18,AGGATATGCAGACACACACACATATAGATTTATATA [CACACA_site7100],10.3
19,TCTATATAATACCAATGTACATAGTTTTAAGCATAA [XGTACX_site1889],9.48
20,AAAACAAAAATATAAACACACATACATTGGTTTTCT [CACACA_site5405],9.87
21,ATAAATTGTAAAATGTGTACGCAGATATTGCGTATT [XGTACX_site332],9.75
22,ATAATATAAACATACACACACACATATATATATATA [CACACA_site5591],10.8

row,Sequence,gcPBM binding intensity (ln)
1,TTTTGTCTTCAAATCAAATGTATATAAAAAAAATAC [CACACA_negctrl_site1717],9.34
2,TTTAAAAATTTGATCAAACACACGTTGCATAAATTA [CACACA_site3945],9.62
3,TTTTTTACTTTTGAGACATTTCATATTTTTATTCAC [GTGCAC_negctrl_site730],9.71
4,TGATTGAGTAAAATGGGTACATATACACTATTACAT [XGTACX_site5232],9.66
5,TACAGGAATATTTTTACACACTAAAAATTATAAAAT [CACACA_site1649],9.66
6,ATATTGTATTTATGTACACACATTTTTGGAATATGA [CACACA_site4861],9.87
7,TTTTTTCTCTGTGGCTGTACTTTGAAGATATTTTAT [XGTACX_site8243],10.2
8,AAAGGTTCACATTATATAGTTATGTAATATATATGT [CACACA_negctrl_site542],9.67
9,CTCTGTTGTCTTAGTTGTACAATAGAAAAAAATAAT [XGTACX_site7043],9.51
10,TCTTTTAAACAGTACACACACACATCTATATTTATA [CACACA_site6559],10.2
11,ATATATATATATATATGTACATATTGTATTAATTAT [XGTACX_site1919],9.82
12,TTTTCATATTATAGTGCACACAAAAATATATATATG [CACACA_site8929],9.68
13,TAAAATATATATATGTGTACATAACATATAATTTTT [XGTACX_site1725],9.57
14,TTATTTAGTATATTATGTACATACAATGCCTGGGAA [XGTACX_site4578],9.57
15,AGTATAAAAATATATTTACACACTATATATATCGAA [CACACA_site8494],9.8
16,ATATGTTACAGACACACACACACATAAAAAAACAAA [CACACA_site3248],11.1
17,TATTGTTGTTCATGTACACACTATAATAAAAGCAAT [CACACA_site6148],9.62
18,AGGTACTTTTTTAAAACACACATATAACATATACAC [CACACA_site6629],9.83
19,ACCCCCAATACGGAAACACACAAGTTATTTTATCAT [CACACA_site8874],10
20,AATTAGATTTACTGAAGTACTTAATTTATTTTATTA [XGTACX_site3407],9.78
21,AATAATCTATATTGTACACACAAAATGGGAAAAAAA [CACACA_site6969],9.99
22,AAAAAAGGAAAAGATACACACCGTAAATTAAAATTT [CACACA_site5908],10.2
